A collection of fitness landscapes (doi:10.1126/science.1257360)
The other results are listed elsewhere or left out.

B1: PhoQ; a variant is named by its letters at X, in order, P23837 (parent)
chain: MKKLLRLFFPLSLRVRFLLATAAVVLVLSLAYGMVALIGYSVSFDKTTFRLLRGESNLFYTLAKWENNKLHVELPENIDKQSPTMTLIYDENGQLLWAQRDVPWLMKMIQPDWLKSNGFHEIEADVNDTSLLLSGDHSIQQQLQEVREDDDDAEMTHSVAVNVYPATSRMPKLTIVVVDTIPVELKSSYMVWSWFIYVLSANLLLVIPLLWVAAWWSLRPIEALAKEVRELEEHNRELLNPATTRELTSLVRNLNRLLKSERERYDKYRTTLTDLTHSLKTPLXXLQXXLRSLRSEKMSVSDAEPVMLEQISRISQQIGYYLHRASMRGGTLLSRELHPVAPLLDNLTSALNKVYQRKGVNISLDISPEISFVGEQNDFVEVMGNVLDNACKYCLEFVEISARQTDEHLYIVVEDDGPGIPLSKREVIFDRGQRVDTLRPGQGVGLAVAREITEQYEGKIVAGESMLGGARMEVIFGRQHSAPKDE

Variants of: B1
Assay: enrichment ratio after two sorts for PhoP signalling (ratio (wild type AVST 3.29)); higher = more functional
Settings: with PhoP (E. coli)
Variant MQGP has an enrichment ratio of at most 0.25.
In the case of LLKA, the enrichment ratio is reported as at most 0.25.
VKMI was tested, and the enrichment ratio was at most 0.25.
In the case of YAST, the enrichment ratio is reported as at most 0.25.
TERN gave an enrichment ratio of at most 0.25.
With KYLI the enrichment ratio was at most 0.25.
QLCF was tested, and the enrichment ratio was at most 0.25.
Work on PMMG yielded an enrichment ratio of at most 0.25.
AQKR was tested, and the enrichment ratio was at most 0.25.
Variant LQNL has an enrichment ratio of at most 0.25.
LCCY was tested, and the enrichment ratio was at most 0.25.
VWTY gave an enrichment ratio of at most 0.25.
ANIE gave an enrichment ratio of at most 0.25.
LPFF gave an enrichment ratio of at most 0.25.
Work on PNPI yielded an enrichment ratio of at most 0.25.
QDIC gave an enrichment ratio of at most 0.25.
AYNM showed an enrichment ratio of at most 0.25.
MLVA gave an enrichment ratio of at most 0.25.
Variant FGNP has an enrichment ratio of at most 0.25.
Variant AHDY has an enrichment ratio of at most 0.25.
VEHC gave an enrichment ratio of at most 0.25.
YHSQ was tested, and the enrichment ratio was at most 0.25.
MTCC gave an enrichment ratio of at most 0.25.
PSYG was tested, and the enrichment ratio was at most 0.25.
TVGH showed an enrichment ratio of 4.06.
With TTND the enrichment ratio was 4.14.
In the case of KYMD, the enrichment ratio is reported as at most 0.25.
Variant APCT has an enrichment ratio of at most 0.25.
In the case of NYQD, the enrichment ratio is reported as at most 0.25.
For LSGR, the enrichment ratio was at most 0.25.
For WMLR, the enrichment ratio was at most 0.25.
NLWV gave an enrichment ratio of at most 0.25.
YILW showed an enrichment ratio of at most 0.25.
KSIY showed an enrichment ratio of at most 0.25.
For RVVS, the enrichment ratio was at most 0.25.
WVPF was tested, and the enrichment ratio was at most 0.25.
FNVL was tested, and the enrichment ratio was 0.562.
With GTGD the enrichment ratio was at most 0.25.
Work on YEID yielded an enrichment ratio of at most 0.25.
With DAWR the enrichment ratio was at most 0.25.
For ILLA, the enrichment ratio was at most 0.25.
Variant SRTG has an enrichment ratio of at most 0.25.
QMQG showed an enrichment ratio of at most 0.25.
In the case of DLVS, the enrichment ratio is reported as at most 0.25.
In the case of FTDT, the enrichment ratio is reported as at most 0.25.
For QGQP, the enrichment ratio was at most 0.25.
In the case of FTDF, the enrichment ratio is reported as at most 0.25.
For LQCT, the enrichment ratio was at most 0.25.
YAPH gave an enrichment ratio of at most 0.25.
Variant NRVP has an enrichment ratio of at most 0.25.
VQTF was tested, and the enrichment ratio was at most 0.25.
Variant GFQE has an enrichment ratio of at most 0.25.
For RVNY, the enrichment ratio was at most 0.25.
Work on PPII yielded an enrichment ratio of at most 0.25.
Variant ATDY has an enrichment ratio of at most 0.25.
With GYSV the enrichment ratio was at most 0.25.
Variant PYTS has an enrichment ratio of at most 0.25.
KYNC was tested, and the enrichment ratio was at most 0.25.
In the case of SSFG, the enrichment ratio is reported as at most 0.25.
With WPSV the enrichment ratio was at most 0.25.
For VARF, the enrichment ratio was at most 0.25.
TGWF showed an enrichment ratio of 0.819.
In the case of AHLD, the enrichment ratio is reported as at most 0.25.
In the case of SEMN, the enrichment ratio is reported as 4.75.
ILEP showed an enrichment ratio of at most 0.25.
Work on YDCM yielded an enrichment ratio of at most 0.25.
Variant ADDM has an enrichment ratio of at most 0.25.
With VTAA the enrichment ratio was at most 0.25.
Variant KLRP has an enrichment ratio of at most 0.25.
For GFWT, the enrichment ratio was at most 0.25.
For EPAE, the enrichment ratio was at most 0.25.
FHIH gave an enrichment ratio of at most 0.25.
KHYH showed an enrichment ratio of at most 0.25.
With PFDF the enrichment ratio was at most 0.25.
In the case of IFVW, the enrichment ratio is reported as at most 0.25.
Variant TYTS has an enrichment ratio of 2.26.
With SYTN the enrichment ratio was at most 0.25.
Variant SNMH has an enrichment ratio of 11.9.
In the case of QHFN, the enrichment ratio is reported as at most 0.25.
Variant RAGC has an enrichment ratio of at most 0.25.
Work on DENS yielded an enrichment ratio of at most 0.25.
NKHR gave an enrichment ratio of at most 0.25.
GNCI gave an enrichment ratio of 14.4.
FYWV gave an enrichment ratio of at most 0.25.
With KWLT the enrichment ratio was at most 0.25.
Variant VQRD has an enrichment ratio of at most 0.25.
For LPPR, the enrichment ratio was at most 0.25.
For WFMD, the enrichment ratio was at most 0.25.
QGAH gave an enrichment ratio of 4.81.
PEMC gave an enrichment ratio of at most 0.25.
Work on VEIL yielded an enrichment ratio of at most 0.25.
Variant SFQY has an enrichment ratio of at most 0.25.
LREV showed an enrichment ratio of at most 0.25.
With DFYH the enrichment ratio was at most 0.25.
HRYP was tested, and the enrichment ratio was at most 0.25.
In the case of GHCF, the enrichment ratio is reported as at most 0.25.
Variant DRFS has an enrichment ratio of at most 0.25.
EMND gave an enrichment ratio of at most 0.25.
GHLK was tested, and the enrichment ratio was at most 0.25.
For TQLR, the enrichment ratio was 2.23.
RQND was tested, and the enrichment ratio was at most 0.25.
QTSF gave an enrichment ratio of 4.47.
MNMV gave an enrichment ratio of 8.01.
For YIYP, the enrichment ratio was at most 0.25.
With WLKI the enrichment ratio was at most 0.25.
HMAH showed an enrichment ratio of at most 0.25.
With KRKN the enrichment ratio was at most 0.25.
With KYTI the enrichment ratio was at most 0.25.
For LNNL, the enrichment ratio was at most 0.25.
Work on FKEY yielded an enrichment ratio of at most 0.25.
In the case of SSET, the enrichment ratio is reported as 0.369.
FAQI showed an enrichment ratio of 0.326.
QWLT gave an enrichment ratio of at most 0.25.
Work on HYSY yielded an enrichment ratio of at most 0.25.
Work on NPTY yielded an enrichment ratio of at most 0.25.
With NNND the enrichment ratio was at most 0.25.
For DWRF, the enrichment ratio was at most 0.25.
MSWK was tested, and the enrichment ratio was at most 0.25.
Work on RNMC yielded an enrichment ratio of at most 0.25.
In the case of ITFK, the enrichment ratio is reported as at most 0.25.
Work on ANDM yielded an enrichment ratio of at most 0.25.
LQVV was tested, and the enrichment ratio was at most 0.25.
For FWSV, the enrichment ratio was at most 0.25.
KTVG was tested, and the enrichment ratio was at most 0.25.
Variant RSWQ has an enrichment ratio of at most 0.25.
With KITL the enrichment ratio was at most 0.25.
With MFVG the enrichment ratio was at most 0.25.
With ARCC the enrichment ratio was at most 0.25.
Work on DYMR yielded an enrichment ratio of at most 0.25.
YLNF showed an enrichment ratio of at most 0.25.
With FESL the enrichment ratio was at most 0.25.
For VIQR, the enrichment ratio was at most 0.25.
DACH was tested, and the enrichment ratio was at most 0.25.
Variant AARE has an enrichment ratio of at most 0.25.
Work on SYHI yielded an enrichment ratio of at most 0.25.
In the case of FFAG, the enrichment ratio is reported as at most 0.25.
For PEKI, the enrichment ratio was at most 0.25.
NFVN showed an enrichment ratio of at most 0.25.
In the case of HWDP, the enrichment ratio is reported as at most 0.25.
Work on EHHQ yielded an enrichment ratio of at most 0.25.
AMVV was tested, and the enrichment ratio was 9.7.
In the case of LCDL, the enrichment ratio is reported as at most 0.25.
FVRW gave an enrichment ratio of at most 0.25.
With DANN the enrichment ratio was at most 0.25.
In the case of VKYM, the enrichment ratio is reported as at most 0.25.
Work on ALIQ yielded an enrichment ratio of at most 0.25.
For LVQF, the enrichment ratio was at most 0.25.
Work on GAIY yielded an enrichment ratio of at most 0.25.
For IFTD, the enrichment ratio was at most 0.25.
In the case of SMKR, the enrichment ratio is reported as at most 0.25.
For DLYT, the enrichment ratio was at most 0.25.
ECAF was tested, and the enrichment ratio was at most 0.25.
Variant SVSK has an enrichment ratio of 12.7.
HGYH gave an enrichment ratio of at most 0.25.
KHGP was tested, and the enrichment ratio was at most 0.25.
Variant VHPD has an enrichment ratio of at most 0.25.
Variant GIDK has an enrichment ratio of at most 0.25.
For TEDI, the enrichment ratio was at most 0.25.
For ARLF, the enrichment ratio was 1.96.
Variant AQMC has an enrichment ratio of 2.48.
In the case of PWTQ, the enrichment ratio is reported as at most 0.25.
For QPLM, the enrichment ratio was at most 0.25.
In the case of NRVA, the enrichment ratio is reported as at most 0.25.
AHTE was tested, and the enrichment ratio was at most 0.25.
Variant APIM has an enrichment ratio of at most 0.25.
Variant NMVR has an enrichment ratio of at most 0.25.
Work on FHFE yielded an enrichment ratio of at most 0.25.
ENNS gave an enrichment ratio of at most 0.25.
For VHTY, the enrichment ratio was at most 0.25.
RVAL showed an enrichment ratio of at most 0.25.
In the case of VEPK, the enrichment ratio is reported as at most 0.25.
Variant QGSI has an enrichment ratio of 8.26.
Variant MEWY has an enrichment ratio of 6.15.
NVII gave an enrichment ratio of at most 0.25.
With QLQL the enrichment ratio was at most 0.25.
Variant SNYH has an enrichment ratio of at most 0.25.
With LELG the enrichment ratio was 8.
WFAP showed an enrichment ratio of at most 0.25.
Variant YRWS has an enrichment ratio of at most 0.25.
Work on DLGI yielded an enrichment ratio of at most 0.25.
In the case of TDET, the enrichment ratio is reported as at most 0.25.
Variant QMQR has an enrichment ratio of at most 0.25.
With DGWA the enrichment ratio was at most 0.25.
WAFY gave an enrichment ratio of at most 0.25.
With RRHE the enrichment ratio was at most 0.25.
In the case of GLIN, the enrichment ratio is reported as at most 0.25.
Work on KTEP yielded an enrichment ratio of at most 0.25.
For VFYW, the enrichment ratio was at most 0.25.
For KKVC, the enrichment ratio was at most 0.25.
SWAV showed an enrichment ratio of at most 0.25.
Variant MCNF has an enrichment ratio of at most 0.25.
For EYVW, the enrichment ratio was at most 0.25.
YECG showed an enrichment ratio of 7.36.
For FMRI, the enrichment ratio was at most 0.25.
LFGP gave an enrichment ratio of at most 0.25.
